Data: article PMC4336329 (PLoS ONE, 2015)
The campaign covered roughly 310,000 compounds. About 2,200 (0.71%) showed an effect of 50% or more. Effects have a minus sign here. The list shows a part of the results.

Biological target: human ether-à-go-go-related gene (hERG) potassium channel (human, UniProt Q12809)
Experiment: primary screen, population patch clamp on CHO cells stably expressing hERG

human ether-à-go-go-related gene (hERG) potassium channel, sequence (Q12809 whole entry, looked up): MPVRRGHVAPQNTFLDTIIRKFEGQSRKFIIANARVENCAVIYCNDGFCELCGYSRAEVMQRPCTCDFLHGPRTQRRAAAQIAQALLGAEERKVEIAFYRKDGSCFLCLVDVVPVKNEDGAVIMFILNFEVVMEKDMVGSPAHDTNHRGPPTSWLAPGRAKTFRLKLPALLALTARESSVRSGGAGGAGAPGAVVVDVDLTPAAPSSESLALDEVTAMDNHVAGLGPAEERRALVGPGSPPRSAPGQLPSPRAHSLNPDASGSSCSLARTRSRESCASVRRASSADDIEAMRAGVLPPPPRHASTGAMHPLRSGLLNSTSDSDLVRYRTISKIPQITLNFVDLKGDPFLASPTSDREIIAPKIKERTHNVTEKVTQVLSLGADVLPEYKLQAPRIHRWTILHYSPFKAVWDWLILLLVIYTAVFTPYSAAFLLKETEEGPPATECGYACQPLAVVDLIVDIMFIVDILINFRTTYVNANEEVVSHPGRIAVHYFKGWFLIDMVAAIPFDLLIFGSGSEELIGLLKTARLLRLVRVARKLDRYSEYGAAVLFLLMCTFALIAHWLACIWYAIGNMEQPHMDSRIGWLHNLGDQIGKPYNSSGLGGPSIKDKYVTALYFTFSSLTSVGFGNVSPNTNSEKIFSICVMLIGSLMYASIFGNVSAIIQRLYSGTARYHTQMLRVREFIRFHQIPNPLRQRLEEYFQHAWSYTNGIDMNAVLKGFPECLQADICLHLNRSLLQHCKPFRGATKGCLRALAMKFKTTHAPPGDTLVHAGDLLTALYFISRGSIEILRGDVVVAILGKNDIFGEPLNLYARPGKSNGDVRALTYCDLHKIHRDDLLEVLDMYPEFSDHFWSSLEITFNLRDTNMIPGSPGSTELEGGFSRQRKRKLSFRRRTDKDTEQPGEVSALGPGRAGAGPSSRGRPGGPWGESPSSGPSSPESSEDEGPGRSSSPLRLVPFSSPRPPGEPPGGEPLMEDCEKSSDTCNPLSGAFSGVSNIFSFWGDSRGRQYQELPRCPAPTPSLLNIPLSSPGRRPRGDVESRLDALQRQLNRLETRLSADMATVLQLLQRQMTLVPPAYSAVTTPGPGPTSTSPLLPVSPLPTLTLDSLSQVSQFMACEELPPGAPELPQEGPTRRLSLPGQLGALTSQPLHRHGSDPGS

| Compound | hERG current change (%, negative = inhibition) at 1uM |
| --- | --- |
| COc1cccc(C2=CC(=O)C[C@H](c3ccc(Cl)cc3)C2)c1 | 13.6% |
| O=C(CSc1nnc(Cc2ccccc2)o1)Nc1ccc2c(c1)OCO2 | 8.1% |
| CC(NC(=O)CSc1ccccc1C(=O)O)C1CC2CCC1C2 (stereo not drawn) | 13.7% |
| CCCc1cc(NC(=O)CCl)n(-c2ccccc2)n1 | -0.734% |
| COc1c(N2CCNC(C)C2)c(F)cc2c(=O)c(C(=O)O)cn(C3CC3)c12 (stereo not drawn) | 7.71% |
| COc1ccc(-c2nc(CS(=O)CC(=O)NC3CCC(C)CC3)c(C)o2)cc1OC (stereo not drawn) | 4.54% |
| COc1ccc(N(C)C(=O)c2ccc3snnc3c2)cc1 | 12.1% |
| CCOC(=O)C1CCN(C(=O)C2(NC(=O)Nc3cccc(F)c3)CCCCC2)CC1 | 11.4% |
| CCCCN1C(=S)SC(C)(C)C1/[N+]([O-])=C/c1cccnc1 (stereo not drawn) | 7.89% |
| Cc1ccccc1NC(=O)CSc1n[nH]c(-c2ccco2)n1 | 7.33% |
| CCOP(=O)(OCC)c1ccc(OP(=O)(c2cccc([N+](=O)[O-])c2)c2cccc([N+](=O)[O-])c2)cc1 | 13.2% |
| CCc1cc2c(SCC(=O)N(C)C3CCS(=O)(=O)C3)ncnc2s1 (stereo not drawn) | -7.21% |
| CC/C(=N\NC(=O)C(N)=O)c1ccccc1O | 9.22% |
| Cc1ccc(C(CC(=O)N2CCNCC2)c2ccccc2)c(O)c1C (stereo not drawn) | -11.5% |
| COc1ccc(CCNC(=O)CSC2=NS(=O)(=O)c3cc(Cl)ccc3N2)cc1OC | 15.5% |
| CC(=O)Nc1ccc(NC(=O)C(C)Sc2n[nH]c(=O)n2Cc2ccccc2)cc1 (stereo not drawn) | 11.9% |
| Cc1ccc(-n2c(SCC(=O)N(C)C3CCS(=O)(=O)C3)nc3ccccc3c2=O)cc1 (stereo not drawn) | 15.6% |
| Cc1ccc(C2C(C#N)=C(N)Oc3n[nH]c(-c4cccs4)c32)s1 (stereo not drawn) | 18.8% |
| N#Cc1ccc(C(=O)N2CCN(S(=O)(=O)c3ccc(Cl)s3)CC2)cc1 | -11% |
| COC(=O)c1ccc(NC(=O)NC2CCCCC2)cc1 | 11.3% |
| COc1ccc(/C=C/C(=O)OCC(=O)Nc2cc(C(N)=O)cc(C(N)=O)c2)cc1 | 18.9% |
| CCOc1ccc(C2Sc3ccccc3NC3=C2C(=O)OC3)cc1 (stereo not drawn) | -2.14% |
| Cc1ccc(C)c(NC(=O)C(CC(=O)O)C2CCCO2)c1 (stereo not drawn) | 12.1% |

| Compound | hERG current change (%, negative = inhibition) at 1uM |
| --- | --- |
| O=C(Cn1ncc2c3ccccc3n(Cc3ccccc3F)c2c1=O)NCCCN1CCCC1=O | 7.16% |
| Cc1ccnc(NC(=O)c2cc3ccccc3o2)c1 | -6.74% |
| Cc1ccc(Cl)cc1NC(=O)COC(=O)c1ccc(CN2CCCC2=O)cc1 | 6.48% |
| O=C(O)CCCCCNC(=O)c1cccc(Br)c1 | 8.09% |
| CCOC(=O)Cn1c(=O)oc2cc(S(=O)(=O)NC(C)c3ccccc3)ccc21 (stereo not drawn) | 0.367% |
| NC1=NC(=O)/C(=C/c2ccsc2)S1 | 3.53% |
| CCOc1ccc(CN(C)C(=O)c2ccc3c(c2)NC(=O)C(C)S3)cc1OC (stereo not drawn) | -8.71% |
| CSc1ccccc1C(=O)Nc1ccccc1C(=O)NC(C)C | 11.2% |
| C/C(=N\NC(=S)NCCc1ccccc1)c1ccc(C)cc1 | 8.12% |
| CCn1nc(C)c(CN2CCN(Cc3ccc(OC)c(C)c3C)C(CCO)C2)c1C (stereo not drawn) | -13.6% |
| CCOC(=O)CC(NCc1ccc(OC)c(OCC)c1)c1ccc(C)cc1.Cl (stereo not drawn) | -4.4% |
| Cc1nnsc1-c1c(C(=O)O)c(C)nn1-c1ccc(OC(F)(F)F)cc1 | 14.5% |
| C(=N\N1CCN(c2ccccn2)CC1)/c1cccc2ccccc12 | 10.8% |
| O=C(CC1Nc2ccccc2NC1=O)NCc1cccnc1 (stereo not drawn) | 6.8% |
| N#CCCn1cc(C(=O)NCc2ccccc2)c(-c2cccs2)n1 | 18.3% |
| COc1cc(C(=O)NCCNc2nc3cc(C)ccc3cc2C#N)cc(OC)c1OC | 9.24% |
| CN(C(=O)c1cccc(C#N)c1)c1nnc(C2CCCO2)s1 (stereo not drawn) | 12.8% |
| CN(Cc1nc(Cc2ccccc2F)no1)[C@@H]1CS(=O)(=O)C[C@H]1O | -18.6% |
| Cc1ccc(S(=O)(=O)CCC(=O)Nc2nc(-c3ccccn3)cs2)cc1 | 18.1% |
| O=C(C1CCN(c2nc(-c3ccccc3)nc3c2CCC3)CC1)N1CCC(O)CC1 | -6.37% |
| O=C(NCCC1=CCCCC1)c1cc2ccccc2oc1=O | 11.7% |
| O=C(NCc1ccc(Cl)cc1)c1cc([N+](=O)[O-])ccc1Cl | 15.8% |
| CCOc1ccc(/C(O)=C2/C(=O)C(=O)N(CCN(C)C)C2c2ccccc2)cc1Cl (stereo not drawn) | -0.667% |

| Compound | hERG current change (%, negative = inhibition) at 1uM |
| --- | --- |
| COc1ccc(SC[C@H](CC(C)C)N2CCN(C)CCC2=O)cc1 | -9.72% |
| Cc1cc2ccccc2c(=O)n1CC(=O)NCc1ccco1 | 18.5% |
| Cc1nc2n[nH]c(N)c2c2c1CCCC2 | 9.17% |
| CC(=O)N1CCc2cc(S(=O)(=O)NC(Cc3ccccc3)C(=O)NCCN3CCCCC3C)ccc21 (stereo not drawn) | 6.91% |
| CCNC(=O)CC1C(=O)N(c2ccc(F)cc2)C(=O)N1CCc1ccc(OC)cc1 (stereo not drawn) | -10.2% |
| COc1ccccc1C1=NCc2nnc(C)n2-c2ccc(Cl)cc21 | 12.4% |
| CCN(CC)CCN1C(=O)c2ccccc2NC1c1cccc(F)c1 (stereo not drawn) | -48.3% |
| COCc1cc(C)nc2sc3c(=O)n(-c4cccc5ccccc45)nnc3c12 | 6.97% |
| CCN1C(=O)/C(=C/c2cccs2)SC1=Nc1ccc(OC)cc1 | -2.52% |
| COc1ccc(-n2c(/C=C/c3ccc4c(c3)OCO4)nc3ccccc3c2=O)cc1 | -9.35% |
| CNC(=O)c1[nH]cnc1C(=O)Nc1ccc(OC)cc1 | 18.8% |
| COc1cccc(OC)c1OCCN1CCCC1 | 17.7% |
| C=CCNC(=S)/N=c1/scc(C)n1C | 0.655% |
| CC(C)(C)C(=O)Nc1nnc(CC(=O)NCc2ccccc2)s1 | 5.42% |
| CC1CN(C(=O)CCC(=O)N2CCN(c3ccccn3)CC2)c2ccccc2O1 (stereo not drawn) | 9.88% |
| Cc1cc(=O)oc2cc(OCC(=O)NC3CCCC3)ccc12 | -18.4% |
| COc1ccc(C2=NOC(C(=O)Nc3ccc(C(C)=O)cc3)C2)cc1OC (stereo not drawn) | -1.99% |
| O=C(Nc1c2c(nc3ccccc13)CCCC2)c1ccccc1Br | 8.91% |
| CCCn1c(N)c(C(=O)COc2ccc(Br)cc2F)c(=O)n(C)c1=O | 0.814% |
| Cc1cc2nc(Sc3c([N+](=O)[O-])nc(C)n3Cc3ccccc3)[nH]c2cc1C | 11% |
| O=C(COC(=O)/C=C/c1ccc(OC(F)F)cc1)NC1CCCCCCC1 | 9.31% |
| O=C(/C=C/c1ccc2ccccc2n1)N1CCN(S(=O)(=O)c2ccc(F)cc2)CC1 | -5.65% |
| Cc1nn(-c2ccc(Cl)c(Cl)c2Cl)c(=O)c2ccccc12 | -1.02% |

| Compound | hERG current change (%, negative = inhibition) at 1uM |
| --- | --- |
| O=C(NCc1ccco1)C12CC3CC(C1)CC(C(=O)NCc1ccco1)(C3)C2 | 7.89% |
| Cc1ccc2[nH]c(=O)cc(C(=O)OCC(=O)c3ccc(F)cc3)c2c1 | 3.99% |
| CCc1ccc(OCC(=O)NNC(=O)CSc2ncnc3sc(C)c(C)c23)cc1 | 4.36% |
| O=C(CN1C(=O)NC2(CCCCC2)C1=O)Nc1ccc(F)cc1 | -1.97% |
| Cc1nnc(N2CCc3ccccc3C2)[nH]c1=O | 2.63% |
| O=C(NC1CCCCC1)c1cc(S(=O)(=O)N2CCOCC2)c(Cl)cc1Cl | 24.2% |
| COC(=O)C1=C(c2ccc(Cl)c(C(F)(F)F)c2)C[C@@H]2CC[C@H]1N2C(=O)NC1CC1 | 8.33% |
| COc1cc(OC)c(NC(=O)C2CCCO2)cc1Cl (stereo not drawn) | 5.2% |
| Cc1cc2nnc(SCC(=O)NCc3cccs3)n2c(N)n1 | -7.33% |
| C=C(C)Cn1c(-c2ccncc2)n[nH]c1=S | 13.7% |
| COc1ccc(C)cc1N1CC(C(=O)Nc2ccccc2N2CCCCC2)CC1=O (stereo not drawn) | -0.99% |
| CN(CCOc1ccc(Br)cc1)CC(O)COc1ccc(C#N)cc1 (stereo not drawn) | 7.66% |
| O=C(NCc1cccnc1)C1CCCCN1S(=O)(=O)c1ccc(F)cc1 (stereo not drawn) | -9.57% |
| COc1ccc(-c2nc(-c3ccccc3)no2)c(OC)c1 | 6.88% |
| CS(=O)(=O)c1nc2c(cc1C#N)CCCC2 | 11.4% |
| COc1ccc2c3n(nc2c1)CCN=C3c1ccc(C)cc1 | 0.515% |
| O=C(N/N=C/c1cn(Cc2ccccc2)c2ccccc12)c1ccncc1 | 12.3% |
| O=C(c1ccc(CSc2nc3ccncc3[nH]2)cc1)N1CCCCCC1 | -0.856% |
| COC(=O)c1ccccc1S(=O)(=O)NC(=O)c1ccccc1 | 1.38% |
| Cc1ccc(-c2noc(C3CCCN(C(=O)c4ccccc4)C3)n2)o1 (stereo not drawn) | 6.19% |
| COc1ccc(CC(=O)Nc2ccccc2N2CCOCC2)cc1OC | 17.2% |
